Measurements as given in PubChem BioAssay AID624296 (National Center for Advancing Translational Sciences (NCATS), 2012).
The campaign covered roughly 350,000 compounds. About 9,900 (2.8%) were called active. Inconclusive results, whose numbers are uncertain, are shown with a selection of clear calls. Calls come from the whole dose curve; as a rule, active = well fitted activation curve with a large enough effect; inconclusive = small, poorly fitted or top-dose-only effect; inactive = no such curve, though single readings can be large or run the other way. No potency is given beside an inconclusive call; the fits are too rough.
Potency is the fitted concentration of half-maximal effect; tags give direction and shape of the fitted curve.

Test: A quantitative high throughput screen for small molecules that induce DNA re-replication in MCF 10a normal breast cells. Note: nearly all actives have a fitted effect of over 50% in size.
Conditions: MCF 10A DNA re-replication, Hoechst nuclear intensity, 48 h; series mostly up to 46.1 µM
With `N#Cc1c(NC(=O)Cn2c(=O)oc3ccccc32)oc(-c2ccccc2)c1-c1ccccc1` the Potency was inconclusive [activator, full curve, poor fit].
With `Cc1ccc(C)c(S(=O)(=O)N2CCN(c3ncccn3)CC2)c1` the Potency was “inactive”.
With `O=c1oc2c(-c3cccc(F)c3)cc(O)cc2s1` the Potency was inconclusive [activator, partial curve, poor fit].
In the case of `CC(C)(C)C1c2[nH]c3ccccc3c2CCN1Cc1cccc(OCCO)c1` (stereo not given), the Potency is reported as inconclusive [activator, partial curve, poor fit].
In the case of `CCOc1ccc(N(C(=O)c2cnsn2)C(C(=O)NC2CCCCC2)c2ccncc2)cc1` (stereo not given), the Potency is reported as “inactive”.
With `CCOc1cc(C(=S)N2CCCCC2)ccc1OS(=O)(=O)c1ccc(Cl)cc1` the Potency was inconclusive [activator, partial curve, poor fit].
For `CCCC[n+]1ccn(-c2nc3ccccc3nc2[N-]S(=O)(=O)c2cccs2)c1`, the Potency was inconclusive [activator, single point].
For `CC1=C(C(=O)Nc2cccc(F)c2)C(c2ccsc2)C2=C(CC(C)(C)CC2=O)N1` (stereo not given), the Potency was active: 5.8 µM.
In the case of `Cc1nc(Nc2ccc(S(N)(=O)=O)cc2)sc1-c1ccccc1`, the Potency is reported as inconclusive [activator, single point].
With `O=C(CNc1ccc(F)cc1)N/N=C/c1c(O)ccc2ccccc12` the Potency was “inactive”.
With `COc1ccc(NC(=O)c2sc(Cl)nc2-c2ccccc2)cc1` the Potency was inconclusive [activator, single point].
In the case of `CC(C)(C)N/N=C/c1c(O)n(-c2ccc(Cl)cn2)c(=O)c2ccccc12`, the Potency is reported as inconclusive [activator, single point].
With `CC(C)(C)OC(=O)CNC(=O)c1nc[nH]c1C(=O)NCC(=O)OC(C)(C)C` the Potency was inconclusive [activator, partial curve, poor fit].
In the case of `O=C1/C(=C\c2ccncc2)CCc2ccccc21`, the Potency is reported as inconclusive [activator, single point].
For `CC(C)(C)C(=O)O/N=C1/C(=O)N(c2ccccc2)c2ccccc21`, the Potency was inconclusive [activator, single point].
In the case of `CCCCC1CCC(C(=O)N(CC(C)C)c2c(N)n(Cc3ccccc3)c(=O)[nH]c2=O)CC1` (stereo not given), the Potency is reported as “inactive”.
In the case of `CCCCS(=O)CC(O)COc1ccc(C(C)(C)C)cc1` (stereo not given), the Potency is reported as inconclusive [activator, partial curve, poor fit].
With `COc1cccc(CN2CC(C(=O)N3CCN(c4ccc(Cl)cc4)CC3)CCC2=O)c1` (stereo not given) the Potency was “inactive”.
With `Cc1cc(N2CCOCC2)nc(NCc2ccccc2)n1` the Potency was active: 7.31 µM.
In the case of `COc1cc2c(-c3ccccc3O)nc3c(c(C)nn3-c3ccccc3)c2cc1OC`, the Potency is reported as inconclusive [activator, full curve, poor fit].
In the case of `COc1ccc(C(CNC(=O)C(C)(C)Oc2ccc(Cl)cc2)N2CCCCC2)cc1` (stereo not given), the Potency is reported as “inactive”.
In the case of `O=C(Nc1nnc(CSCc2ccc(F)cc2)s1)c1cccc([N+](=O)[O-])c1`, the Potency is reported as inconclusive [activator, partial curve, poor fit].
For `O=C(NC1CCCc2ccccc21)c1cccc(Br)c1` (stereo not given), the Potency was inconclusive [activator, full curve, poor fit].
With `O=C(CN1CCCC1)N/N=C/c1c(O)ccc2ccccc12` the Potency was inconclusive [activator, partial curve, poor fit].
For `CCS(=O)(=O)N1CCC(C(=O)Oc2ccccc2Br)CC1`, the Potency was inconclusive [activator, single point].
For `Cc1oc(=O)c(NC(=O)c2cccc(Cl)c2)cc1C(=O)c1ccccc1`, the Potency was inconclusive [activator, full curve].
With `COc1ccc(/C=C/C(=O)NCC(=O)N/N=C/c2ccc(OC)cc2)cc1` the Potency was inconclusive [activator, partial curve, poor fit].
With `COc1ccccc1NC(=O)C1=C(C)Nc2nnnn2C1c1cccc(C)c1` (stereo not given) the Potency was “inactive”.
With `CCCCOCCCNC(=O)C1c2ccccc2Oc2ccccc21` the Potency was inconclusive [activator, single point].
In the case of `CCCCCC[N+](C)(C)CCSSCC[N+](C)(C)CCCCCC`, the Potency is reported as “inactive”.
With `COC(=O)CNC(=O)CNC(=O)Nc1ccccc1Cl` the Potency was “inactive”.
In the case of `Cc1cccc(C(=O)NC2CCN(C(=O)NCc3ccccc3)CC2)c1`, the Potency is reported as “inactive”.
In the case of `CC(=O)c1cccc(NC(=O)CN(C)S(=O)(=O)c2cccc3nsnc23)c1`, the Potency is reported as “inactive”.
In the case of `O=C(CNc1cccc2ccccc12)N/N=C/c1ccc([N+](=O)[O-])cc1`, the Potency is reported as inconclusive [activator, partial curve, poor fit].
With `O=C1NC(Cc2ccc(O)cc2)c2nc3cc(Cl)ccc3c(=O)n2-c2cc(Cl)ccc21` (stereo not given) the Potency was inconclusive [activator, single point].
With `Cc1cccc(N2CCN(C(=O)CSc3ccc4c(c3)OCCO4)CC2)c1C` the Potency was inconclusive [activator, single point].
With `N/C(=N\OC(=O)CC1CCCCC1)c1cccc(Br)c1` the Potency was inconclusive [activator, partial curve, poor fit].
For `C=C1CCC(N(O)c2cc(C)on2)C(=C)CCC2C1CC2(C)C` (stereo not given), the Potency was “inactive”.
In the case of `Cc1ccc(C(=O)Nn2c(N)c(S(=O)(=O)c3ccc(C)cc3)c3nc4ccccc4nc32)cc1`, the Potency is reported as inconclusive [activator, single point].
In the case of `CC(=O)c1cccc(NC(=O)CNC(=O)c2sc3ccccc3c2Cl)c1`, the Potency is reported as inconclusive [activator, single point].
For `Cc1ccc(OCc2n[nH]c(=S)n2C2CCCCC2)cc1`, the Potency was inconclusive [activator, partial curve, poor fit].
For `CCOC(=O)c1c2c(n(Cc3ccccc3)c1C)C(=O)C(=O)c1ccccc1-2`, the Potency was active: 3.26 µM.
In the case of `Cc1cc(=O)oc2cc(NC(=S)NCc3ccccn3)ccc12`, the Potency is reported as inconclusive [activator, single point].
In the case of `CC(C)c1ccc(CNC(=O)C(=O)NCC2CCCO2)cc1` (stereo not given), the Potency is reported as inconclusive [activator, single point].
For `CN(CC(O)CON=C1c2ccccc2-c2ccccc21)S(=O)(=O)c1ccc(Br)cc1` (stereo not given), the Potency was active: 16.4 µM.
For `O=[N+]([O-])c1ccc(Nc2c3ccccc3nc3ccccc23)cc1`, the Potency was “inactive”.
In the case of `COc1ccc(OC)c(N/C(C)=C/C(=O)c2ccccc2)c1`, the Potency is reported as “inactive”.
With `Nc1ccc(S(=O)(=O)Nc2nccc(/C=C/c3ccc(Br)s3)n2)cc1` the Potency was inconclusive [activator, single point].
For `COCCNCC(O)CON=C1c2ccccc2-c2ccccc21` (stereo not given), the Potency was “inactive”.
With `Cc1ccc(-c2csc3ncnc(NS(=O)(=O)c4ccc(Cl)cc4)c23)cc1` the Potency was inconclusive [activator, single point].
With `O=c1[nH]c(=O)n(C2C[C@H](O)[C@@H](CO)O2)cc1C(F)(F)F` (stereo not given in full) the Potency was inconclusive [activator, partial curve, poor fit].
For `N/C(=N\OC(=O)CCCc1ccccc1)c1cccnc1`, the Potency was inconclusive [activator, single point].
With `Cc1ccc(CNc2nc3ccccc3n2C)o1` the Potency was “inactive”.
In the case of `CCN(CC)C(=O)c1[nH]cnc1C(=O)Nc1cccc(C)c1`, the Potency is reported as “inactive”.
For `COc1ccc(-c2nc(SCC(=O)NC3CCCCC3)n[nH]2)cc1`, the Potency was inconclusive [activator, single point].
In the case of `CCS(=O)(=O)c1nc(S(=O)(=O)c2ccc(C)cc2)c(N2CCN(CCO)CC2)s1`, the Potency is reported as “inactive”.
With `ClCc1nnc(-c2cc3c(s2)CCCC3)o1` the Potency was inconclusive [activator, single point].
With `COc1ccc(-c2ccc(=O)n(Cc3cc(=O)n4ccccc4n3)n2)cc1` the Potency was inconclusive [activator, single point].
For `Cc1ccc(NC(=O)CSc2nnc(-c3ccccn3)n2N)c(Br)c1`, the Potency was “inactive”.
With `CCC(C)Nc1nc(-c2c[nH]c3ccccc23)cs1` (stereo not given) the Potency was inconclusive [activator, single point].
In the case of `CC(=O)Nc1cccc(C(=O)OCc2ccc(C(=O)Oc3ccc(Cl)cc3)cc2)c1`, the Potency is reported as inconclusive [activator, single point].
With `COc1ccc(NC(=O)NNC(=O)c2ccc3ccccc3c2)cc1OC` the Potency was “inactive”.
For `CCOC(=O)CN(C(=O)CSc1nnc2c(n1)[nH]c1ccc(OC)cc12)c1ccc(F)cc1`, the Potency was “inactive”.
For `CC(=O)c1ccc(NC(=O)Nc2ccccc2)cc1`, the Potency was inconclusive [activator, partial curve].
For `O=C(CSc1ccc(Cl)cc1)Nc1ccc(-c2nc3ccccc3[nH]2)cc1`, the Potency was active: 20.6 µM.
In the case of `O=C(C(Cl)Cl)N1CCN(Cc2ccccc2)CC1`, the Potency is reported as inconclusive [activator, single point].
With `CC(C)c1ccc(/C=C2\SC(=S)N(CC(=O)NCCCN3CCOCC3)C2=O)cc1` the Potency was inconclusive [activator, single point].
In the case of `CCCN(C(=O)/C=C/c1nc2ccccc2s1)C1CCS(=O)(=O)C1` (stereo not given), the Potency is reported as “inactive”.
In the case of `O=C(C1c2ccccc2Oc2ccccc21)N1CCN(c2ccc(Cl)cc2)CC1`, the Potency is reported as inconclusive [activator, partial curve, poor fit].
In the case of `CN(C)S(=O)(=O)c1cccc(NC(=O)c2sccc2-c2ccccc2)c1`, the Potency is reported as inconclusive [activator, partial curve, poor fit].
